{"source": "paper PMC12040169", "about": "(PLOS Biology, 2025)", "note": "The other results are listed elsewhere or left out.", "data": [{"system": "T1, C. trachomatis L2/434/Bu expressing GFP (CTL2-GFP)", "T1 construct": "L2/434/Bu GFP intracellular growth in HeLa cells", "set-up": "species or system HeLa; C. trachomatis total inclusion area by high-content imaging, normalised to DMSO", "details": "total inclusion area; 28.5 h, 10 µM; inhibitor", "procedure,_shortened": "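Post-fluorescence-read fixation, DNA staining with Hoechst and high-content imaging; GFP inclusion area and number per well, and nuclei counts, used as proxies for bacterial growth and host viability.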", "values": [{"smiles": "COc1ccc(OC)c(NC(=O)COc2ccc(C(C)C)cc2)c1", "note": "[CBK263498]", "% of control remaining": 90.1626}, {"smiles": "CCN(CC)C(=O)CN1CCC(Oc2cncc(Oc3ccc(OC)c(OC)c3)n2)C1", "note": "(stereo not shown) [CBK084404]", "% of control remaining": 89.0599}, {"smiles": "O=S(=O)(O)CCCSCCCS(=O)(=O)O", "note": "[CBK278307N]", "% of control remaining": 106.706}, {"smiles": "O=C(OCCC1SC(NC2CC3C=CC2C3)=NC1=O)c1cc(C(F)(F)F)ccc1C(F)(F)F", "note": "(stereo not shown) [CBK200058T]", "% of control remaining": 99.018}, {"smiles": "Cc1ccccc1NC(=O)NCc1ccccc1", "note": "[CBK105833]", "% of control remaining": 35.6995}, {"smiles": "COc1ccc(-c2nnc(N)[nH]2)cc1", "note": "[CBK028843]", "% of control remaining": 89.2657}, {"smiles": "O=C(c1cccc2ncccc12)N1CCC(c2ccncc2)CC1", "note": "[CBK283798]", "% of control remaining": 75.9231}, {"smiles": "O=C(CN1CCC(c2ccccc2F)CC1)N1CCOCC1", "note": "[CBK283548]", "% of control remaining": 85.5062}, {"smiles": "CC(=O)c1ccc(-c2ccc3ccc(N)nc3n2)cc1", "note": "[CBK061862]", "% of control remaining": 89.2108}, {"smiles": "COc1cc(F)ccc1-c1cnc(N)c2ncccc12", "note": "[CBK067585]", "% of control remaining": 70.3806}, {"smiles": "CCc1c(C)nc2ccc(NC(C)=O)cc2c1SCCC(=O)O", "note": "[CBK159465T]", "% of control remaining": 105.721}, {"smiles": "COc1ccc(-c2nnc(SC(C)c3nnc(-c4ccccc4)o3)n2CC(C)C)cc1", "note": "(stereo not shown) [CBK297108]", "% of control remaining": 76.4492}, {"smiles": "O=C(c1ccco1)N1CCC[C@@H]1Cn1c(=O)oc2ccccc21", "note": "[CBK284538]", "% of control remaining": 110.901}, {"smiles": "O=S(=O)(Cc1ccccc1)Nc1nnc(C(F)(F)F)s1", "note": "[CBK045539]", "% of control remaining": 85.8852}, {"smiles": "Cn1cc(CN2CCCN(C(=O)CCCc3ccccn3)CC2)cn1", "note": "[CBK305347]", "% of control remaining": 94.2362}, {"smiles": "c1ccc(SCCCN2CCNCC2)cc1", "note": "[CBK266067G]", "% of control remaining": 91.4014}, {"smiles": "CCOCC1CCCN1C(=O)Nc1ccc2sc(C(=O)N(C)C)cc2c1", "note": "(stereo not shown) [CBK306601]", "% of control remaining": 77.625}, {"smiles": "O=C(NCCc1ccccc1Cl)C1(Cc2ccc(-c3cccnc3)cc2)CCOCC1", "note": "[CBK285590]", "% of control remaining": 94.8399}, {"smiles": "Cc1cc(C(=O)N2CCN(C)CC2)ccc1-c1cnc(N)c(-c2ccc(O)cc2)n1", "note": "[CBK126749]", "% of control remaining": 75.8409}, {"smiles": "CC(C)[C@H](CO)Nc1nccnc1-c1ccco1", "note": "[CBK037390]", "% of control remaining": 97.2487}, {"smiles": "NC(=O)CN1CC2(CCN(CC3COc4ccccc4O3)CC2)c2ccccc21", "note": "(stereo not shown) [CBK143960]", "% of control remaining": 102.402}, {"smiles": "CC(C)c1cccc(-n2cc(O)c(C(=O)NCCC(=O)N(C)C)n2)c1", "note": "[CBK305234]", "% of control remaining": 77.7709}, {"smiles": "N#Cc1c(O)nsc1Nc1ccc(Cl)cc1", "note": "[CBK009446]", "% of control remaining": 115.059}, {"smiles": "Cc1cc(Br)cc(C)c1NC(=O)CSc1nnc(COc2ccccc2Cl)o1", "note": "[CBK264968]", "% of control remaining": 105.872}, {"smiles": "OCC(O)CN1CCc2ccccc21", "note": "(stereo not shown) [CBK260896]", "% of control remaining": 83.1593}, {"smiles": "CCOc1ccc2cc(C3CC(c4ccc(C)cc4)=NN3C(=O)CCC(=O)O)c(Cl)nc2c1", "note": "(stereo not shown) [CBK297508]", "% of control remaining": 90.2004}, {"smiles": "O=C(c1ccncc1)n1nc(NCc2ccccc2)nc1NCc1ccccc1", "note": "[CBK269069]", "% of control remaining": 97.69}, {"smiles": "O=c1c(N2CCCNCC2)nccn1CCOc1ccc(Br)cc1", "note": "[CBK028613T]", "% of control remaining": 73.7532}, {"smiles": "CC(C)(C)c1csc(Nc2nc3cc4c(cc3s2)OCO4)n1", "note": "[CBK287491]", "% of control remaining": 79.1713}, {"smiles": "COc1ccc(Cn2c(C)nc3ccccc32)cc1", "note": "[CBK201156]", "% of control remaining": 44.8922}, {"smiles": "O=C(NCC1(c2ccccc2Cl)CC1)c1ccc(=O)n(CC(=O)N2CCCCC2)c1", "note": "[CBK286077]", "% of control remaining": 115.881}, {"smiles": "O=C(CN1C(=O)c2ccccc2C1=O)NCC1COc2ccccc2O1", "note": "(stereo not shown) [CBK222526]", "% of control remaining": 107.447}, {"smiles": "Cc1c(Cl)cccc1S(=O)(=O)N1CCCN(c2nc3ccc(Cl)cc3s2)CC1", "note": "[CBK014131]", "% of control remaining": 95.2857}, {"smiles": "O=C(Nc1ccccc1)c1onc2c1CCCC2", "note": "[CBK058703]", "% of control remaining": 63.5842}, {"smiles": "OC1(c2ccc(F)cc2)CC2CCC(C1)N2", "note": "(stereo not shown) [CBK281947]", "% of control remaining": 112.883}, {"smiles": "O=[N+]([O-])c1cc(C(F)(F)F)ccc1NCCNC(=S)Nc1ccc(Cl)cc1", "note": "[CBK263578]", "% of control remaining": 73.471}, {"smiles": "COc1ccccc1C(=O)N1CCC(Cc2ccccc2-c2ccccc2)(C(N)=O)CC1", "note": "[CBK285739]", "% of control remaining": 113.305}, {"smiles": "CC(=O)Nc1ccc(-c2cccc(COC3CCN(C(=O)Cc4ccc(C#N)cc4)CC3)c2)cc1", "note": "[CBK149495]", "% of control remaining": 96.7871}, {"smiles": "Cc1nc(C)n(CC2CCCN(CC(=O)NCc3ccccn3)C2)n1", "note": "(stereo not shown) [CBK305291]", "% of control remaining": 72.2679}, {"smiles": "Cc1cccc(OCc2nnc(SCC(=O)NC3CCCCC3)o2)c1", "note": "[CBK264652]", "% of control remaining": 116.917}, {"smiles": "Cc1nc(-c2ccccc2)cc([C@H]2CN3CC[C@H]2C[C@@H]3CNC(=O)NC(C)C)n1", "note": "[CBK289126]", "% of control remaining": 105.699}, {"smiles": "Cc1ccc(F)cc1C(=O)NCC1CCN(c2cnn(C)c(=O)c2)C1", "note": "(stereo not shown) [CBK307235]", "% of control remaining": 88.3689}, {"smiles": "Cc1cccc(C(=O)NCCCNC(=O)c2ccncc2)c1", "note": "[CBK269572]", "% of control remaining": 84.3151}, {"smiles": "CCN(CC(C)C#N)C(=O)c1nn(-c2ccccc2)c(C)cc1=O", "note": "(stereo not shown) [CBK304925]", "% of control remaining": 87.5546}, {"smiles": "CCOC(=O)C1=NN(C)c2cnn(Cc3ccc(Cl)cc3)c(=O)c2C1C(=O)CC(C)C", "note": "(stereo not shown) [CBK021389]", "% of control remaining": 111.988}, {"smiles": "O=C(Cc1ccc(F)cc1)NCCn1nc(-c2ccco2)ccc1=O", "note": "[CBK283706]", "% of control remaining": 91.5681}, {"smiles": "Cc1ccc(C(=O)N2CCN(S(=O)(=O)c3cccc([N+](=O)[O-])c3)CC2)cc1", "note": "[CBK266259]", "% of control remaining": 85.5337}, {"smiles": "CCCCN(C(C)=O)c1c(CC)nc2ccc(C(=O)NCCCn3ccnc3)cn12", "note": "[CBK145759]", "% of control remaining": 69.875}, {"smiles": "CC(C)(CO)CNc1nc(-c2ccc(F)cc2)cnc1N", "note": "[CBK063589]", "% of control remaining": 110.163}, {"smiles": "COc1ccc(OC)c(/N=C2\\CC(=O)CC(C)(C)C2)c1", "note": "[CBK020541]", "% of control remaining": 76.9914}, {"smiles": "Cn1cc(C(=O)O)c(NC(=O)c2ccccc2Cl)n1", "note": "[CBK000353]", "% of control remaining": 97.702}, {"smiles": "CC(NCC(=O)NC1(C#N)CCCCC1)C(C)n1cccn1", "note": "(stereo not shown) [CBK305129]", "% of control remaining": 123.633}]}]}
